Results reported in PMC4336329 (PLoS ONE, 2015).
Screen size: about 310,000 compounds; about 14,000 (4.5%) showed an effect of 50% or more. The effect is printed as a negative number. The list shows a part of the results.

Biological target: human ether-à-go-go-related gene (hERG) potassium channel (human, UniProt Q12809)
Assay: primary screen, population patch clamp on CHO cells stably expressing hERG
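Further: peak tail current of the secondary pulse compared with the same well before compound.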

Sequence of human ether-à-go-go-related gene (hERG) potassium channel (Q12809 whole entry, looked up): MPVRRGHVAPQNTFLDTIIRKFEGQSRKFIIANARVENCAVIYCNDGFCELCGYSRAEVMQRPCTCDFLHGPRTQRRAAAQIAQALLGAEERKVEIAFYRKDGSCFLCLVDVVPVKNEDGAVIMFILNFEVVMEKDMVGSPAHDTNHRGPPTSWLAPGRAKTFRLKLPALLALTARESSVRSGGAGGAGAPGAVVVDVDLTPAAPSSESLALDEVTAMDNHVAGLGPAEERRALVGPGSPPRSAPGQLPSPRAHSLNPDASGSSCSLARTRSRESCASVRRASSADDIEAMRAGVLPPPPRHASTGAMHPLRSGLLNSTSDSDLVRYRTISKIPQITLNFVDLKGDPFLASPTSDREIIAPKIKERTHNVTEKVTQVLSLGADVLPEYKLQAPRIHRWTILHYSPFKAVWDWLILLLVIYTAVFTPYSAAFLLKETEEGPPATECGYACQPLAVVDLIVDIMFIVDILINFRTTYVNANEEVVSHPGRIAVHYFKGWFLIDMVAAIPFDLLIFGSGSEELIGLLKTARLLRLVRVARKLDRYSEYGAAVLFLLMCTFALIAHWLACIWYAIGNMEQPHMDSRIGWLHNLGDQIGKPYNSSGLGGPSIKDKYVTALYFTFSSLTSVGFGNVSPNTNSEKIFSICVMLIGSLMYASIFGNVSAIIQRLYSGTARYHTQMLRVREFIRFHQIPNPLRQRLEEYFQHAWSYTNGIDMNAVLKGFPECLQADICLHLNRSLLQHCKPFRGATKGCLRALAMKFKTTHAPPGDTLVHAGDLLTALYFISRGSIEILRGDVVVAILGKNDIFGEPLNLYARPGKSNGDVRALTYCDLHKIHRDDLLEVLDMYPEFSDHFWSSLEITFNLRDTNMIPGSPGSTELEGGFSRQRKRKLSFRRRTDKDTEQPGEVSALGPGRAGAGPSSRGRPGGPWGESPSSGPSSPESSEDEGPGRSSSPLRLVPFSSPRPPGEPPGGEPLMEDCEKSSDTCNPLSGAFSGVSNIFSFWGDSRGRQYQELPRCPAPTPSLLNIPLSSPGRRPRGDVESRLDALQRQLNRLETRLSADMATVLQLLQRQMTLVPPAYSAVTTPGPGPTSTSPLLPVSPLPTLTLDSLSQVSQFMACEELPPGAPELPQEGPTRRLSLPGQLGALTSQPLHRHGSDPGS

Row | SMILES | hERG current change (%, negative = inhibition) at 10uM
1 | O=C1Nc2cc(C(=O)NCC3CCCO3)ccc2S/C1=C/c1ccccc1F (stereo not drawn) | -4.84%
2 | CN(C)c1nc(N(C)C)nc(N2CC(CCl)OC2=N)n1 (stereo not drawn) | -28.4%
3 | CN(C)CCN=Cc1c(O)n(CCC2=CCCCC2)c(=O)[nH]c1=O | -24.2%
4 | COc1ccc(N=N/C(=C\O)C(=O)c2cccs2)cc1 | 24.5%
5 | CC(=O)c1ccc(NC(=O)CSC(=S)N2CCCC2)cc1 | -2.57%
6 | COc1ccccc1C1CC(c2ccco2)=NN1c1ccccc1 (stereo not drawn) | -0.421%
7 | CC(=O)Nc1ccc(C2=CC(=O)CC(C)(C)C2)cc1 | 10.4%
8 | CC1(OC(=O)CCc2ccccc2)C(=O)C=C2C=C(c3ccsc3)OC=C2C1=O (stereo not drawn) | 2.72%
9 | Cc1ccccc1CS(=O)(=O)Cc1ccc(C(=O)NCc2cccnc2)o1 | 11.5%
10 | Cc1cccc(N(Cc2ccccc2)C(=O)c2ccc(F)c(S(=O)(=O)N3CCOCC3)c2)c1 | -50.5%
11 | O=C(N[C@@H]1CCC(=O)N(CC[C@H](Sc2ccc(Br)cc2)c2ccccc2)CC1)OCc1ccccc1 | 0.417%
12 | FC(F)Oc1ccc(NC(=S)NCc2cccnc2)cc1 | -2.69%
13 | CCSc1nc2ccccc2n1S(=O)(=O)c1ccccc1 | 8.73%
14 | COc1ccccc1C1CCN(C(=O)c2ccccc2)CC1 | 7.16%
15 | O=C(Nc1ccccc1)NN(C(=O)CCl)c1ccccc1 | 6.85%
16 | O=C(CSc1nnc(-c2ccccc2Br)o1)Nc1nncs1 | -57.9%
17 | COc1ccc(-c2nnc(NC(=O)C3CCCO3)s2)cc1 (stereo not drawn) | -8.97%
18 | COc1ccc(C(=O)Nc2ccc(Cl)cc2C(=O)NCc2ccco2)cc1 | -0.702%
19 | CCN(CC)CCNC(=O)c1ccc(Sc2ccc(C)cc2)c(NC(C)=O)c1 | -58.2%
20 | CCNc1nc(C#N)nc2c1ncn2-c1cc(F)cc(F)c1 | 6.83%
21 | CCC(C)OC(=O)c1cc(C)nc2c(Br)cc(Br)cc12 (stereo not drawn) | 12.7%
22 | Cc1n[nH]c(C)c1S(=O)(=O)Nc1ccc2c(c1)OCCO2 | -0.14%
23 | CCOC(=O)COc1cc(O)c2c(=O)cc(-c3ccccc3)oc2c1 | 12%
24 | COC(=O)[C@]1(Cc2ccccc2)N[C@H](c2ccc(-c3cccc(Cl)c3)cc2)[C@@H]2C(=O)N(C)C(=O)[C@@H]21.O=C(O)C(F)(F)F | -7.57%
25 | COc1ccc(-n2cnc3cc(C(=O)NCC4CCCO4)ccc32)cc1 (stereo not drawn) | -17.9%
26 | O=C(NN1C(=O)c2ccccc2C1=O)c1ccc2c(c1)C(=O)N(CC1CCCO1)C2=O (stereo not drawn) | -2.01%
27 | Cc1cc(C)c2c(CC(=O)NN(C)C)coc2c1 | 13.6%

Row | SMILES | hERG current change (%, negative = inhibition) at 10uM
28 | CCOc1cc(/C=N/NC(=O)c2ccc(CSc3nncn3C)cc2)ccc1OCC(=O)N1CCOCC1 | -9.6%
29 | COc1ccc(OCCOC(=O)c2cc(S(=O)(=O)N3CCOCC3)c(Cl)cc2Cl)cc1 | -17.7%
30 | CCOC(=O)C1CCN(C2CC(=O)N(c3cccc(Cl)c3)C2=O)CC1 (stereo not drawn) | -12%
31 | N#CC1=C2SC=C(c3ccc(Br)cc3)N2CCCC1=O | 16.1%
32 | CC1CCN(c2ccc(/C=C(\C#N)c3nn(-c4ccccc4)c(N)c3C#N)cc2[N+](=O)[O-])CC1 | 12.8%
33 | COc1ccc(CNC(=O)COC(=O)C2CC2C)cc1OC (stereo not drawn) | 4.24%
34 | Cc1ccc(S(=O)(=O)N(C)c2ccc(OCC(=O)OCc3c(C)noc3C)cc2)cc1 | 0.368%
35 | CC(C)N(Cc1ccccc1)C(=O)CN1C(=O)COc2ccc(S(=O)(=O)NC3CCCC3)cc21 | -36.1%
36 | Cn1cc([N+](=O)[O-])c(C(=O)Nc2ccc(C(=O)N3CCCCC3)cc2)n1 | 23.3%
37 | CCOc1ccc(NC(=O)CSc2nc(=O)n(Cc3ccccn3)c3c2CCC3)cc1 | -21.2%
38 | Cc1cccc(/C(N)=N/OC(=O)CCC2CCCCC2)c1 | 5.36%
39 | CCOC(=O)c1c(NC(=O)COC(=O)c2ccc([N+](=O)[O-])cc2)sc(C(=O)N(C)C)c1C | -8.65%
40 | COc1ccccc1CC(NC(C)=O)C(=O)NC1CCN(C(=O)Nc2ccccc2Cl)CC1 (stereo not drawn) | -14.7%
41 | N=C1C(=O)OCC1c1ccccc1NC(=O)c1ccccc1 (stereo not drawn) | 8.05%
42 | O=C(CSc1ccc([N+](=O)[O-])cc1)OCC(=O)N1CCCC1=O | -11.7%
43 | C=CCc1c(C)nc(SC)nc1Nc1ccccc1 | -20.4%
44 | COc1ccccc1NC(=O)Cn1cc(C(=O)c2ccco2)c2ccccc21 | -35.8%
45 | CCOC(=O)CC1C(=O)NCCN1S(=O)(=O)c1cccc(C(F)(F)F)c1 (stereo not drawn) | 8.42%
46 | Cc1ccc(C(=O)CSc2nnc(COc3cc(C)cc(C)c3)o2)cc1 | 12.2%
47 | O=C(c1cc(COc2c(F)cccc2F)on1)N(Cc1ccccc1)CC1CC1 | 3.51%
48 | N#Cc1c([N+](=O)[O-])cc([N+](=O)[O-])cc1S(=O)(=O)Cc1ccccc1 | 17.2%
49 | COCCN(C(=O)COC(=O)c1ccccc1NCc1ccco1)c1c(N)n(Cc2ccccc2)c(=O)[nH]c1=O | 0.733%
50 | Cc1ccc(NS(=O)(=O)c2ccc(NC(=O)N3CCCCC3)cc2)cc1 | 8.78%
51 | COc1ccc(Cn2nnnc2C(c2ccc(F)cc2)N2CCN(C3CCCC3)CC2)cc1 (stereo not drawn) | -52.6%
52 | Cc1ccc(NC(=S)N/N=C2\CC(C)(C)Oc3ccc(O)cc32)cc1 | 12%
53 | O=C(C=C=Nc1ccccc1)C(=O)N=C=Cc1ccccc1 | 3.6%
54 | Cl.O=C(CN1CCOCC1)NCc1ccc(F)cc1 | 21.6%
